Data published in paper PMC5075699.

Tested on: ATF4
Assay: ATF4 western blot, 293T cell lysate controls (ER stress induction)
[1] = 293T cell lysate, cortex ATF4 blot 2

Row | Molecule | ATF4 Signal (channel 800) (293T cell lysate + Thapsigargin, western blot band signal, Dentate ATF4 Blot 1 (image 0002173_01)) | ATF4 Signal (channel 800) (293T cell lysate + Thapsigargin, western blot band signal, Dentate ATF4 Blot 2 (image 0002174_01)) | ATF4 Signal (channel 800) (293T cell lysate + Thapsigargin, western blot band signal, Dentate ATF4 Blot 3 (image 0002175_01)) | ATF4:GAPDH signal (normalized ATF4) (293T cell lysate + Thapsigargin, western blot, Dentate ATF4 Blot 1 (image 0002173_01)) | ATF4:GAPDH signal (normalized ATF4) (293T cell lysate + Thapsigargin, western blot, Dentate ATF4 Blot 2 (image 0002174_01)) | ATF4:GAPDH signal (normalized ATF4) (293T cell lysate + Thapsigargin, western blot, Dentate ATF4 Blot 3 (image 0002175_01)) | ATF4:GAPDH signal (normalized ATF4) (293T cell lysate, cortex ATF4 blot 1) | ATF4:GAPDH signal (normalized ATF4) [1] | ATF4 Signal (channel 800) [1]
1 | C/C=C(/C)C(=O)O[C@H]1C(C)=C2[C@H]([C@@H]1OC(=O)CCCCCCC)[C@@](C)(OC(C)=O)C[C@H](OC(=O)CCC)[C@@]1(O)[C@H]2OC(=O)[C@@]1(C)O [Thapsigargin, thapsigargin] | 1.34E+03 | 9.45E+02 | 1.24E+03 | 1.00E+00 | 1.22E+00 | 1.26E+00 | 3.82E-01 | 5.46E-01 | 1.48E+03
2 | tunicamycin | – | – | – | – | – | – | – | 5.17E-01 | 1.40E+03
